In the supplement of paper PMC11417369:
± gives the standard deviation of the averaged measurements. The list shows a part of the results.

System: PfAP2-G AP2 domain (GST-tagged)
Test: gcPBM binding intensity (ln(normalized median fluorescence intensity)); higher = stronger DNA binding
Method in brief: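 The highest Masliner-normalised natural-log median intensity across replicate spots of either probe orientation is reported as binding intensity. GST-tagged P. falciparum DNA-binding domains expressed in E. coli were applied for 1 h to an Agilent 4 × 180k array of primer-extended double-stranded 36-bp intergenic genomic probes plus negative controls, and bound protein was detected with Alexa488 anti-GST antibody and scanned at 488 nm.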

| Sequence | gcPBM binding intensity (ln) |
| --- | --- |
| TATCTGTATTTGTATACACACAAATGTATTTATTTA [CACACA_site4830] | 10.09 ± 0.092 |
| TGTATGTTATATACAACACACAAAAAAAAACAAGTT [CACACA_site301] | 10 ± 0.057 |
| AACTTTTATACGGATACACACAAAAAAAAATAAAAA [CACACA_site6547] | 10.5 ± 0.45 |
| TAAGAAAAATATATATGTACACATATATATATATAT [XGTACX_site8542] | 11.4 ± 0.89 |
| TATATTTAACATACTTTTTTTTTTTTTTTTTTTTTT [CACACA_negctrl_site938] | 10.9 ± 0.45 |
| ATGTGTATACTAAGAACACACAAGTTACTTGGTGTT [CACACA_site6864] | 9.91 ± 0.085 |
| TATTTAAAAGATGAAAGTACACATTTAATTACATTT [XGTACX_site3781] | 11.3 ± 0.92 |
| TAATTAGCATAATACACATGCATACATTTATATATA [TGCATGCA_site542] | 9.75 ± 0.099 |
| TACATATATCTATGTGTGCACTTATTTCCGGACAAA | 11 ± 0.6 |
| AAAAAAAAAAAACATACACACAAGAACAAAATATGA [CACACA_site3002] | 9.865 ± 0.092 |
| AGTCTTTTACATTGCACACACATTTCTTTCCTTTTG [CACACA_site2988] | 10.3 ± 0.049 |
| AATAAATTCATGAATTGTACGTAATGATAACATGAA [XGTACX_site2591] | 11.3 ± 0.75 |
| TTTTTATTCCAGTATTCACACACGAATAACCACATA [CACACA_site1897] | 10.3 ± 0.31 |
| ATTTTCTTTTTTAAACGTACACATATTAAATATATA [XGTACX_site7773] | 11.5 ± 1 |
| ATATATATGTTTTTATGTACATATTTTTCTCCTTCA [XGTACX_site5899] | 11.3 ± 0.69 |
| TTTGGAAAGCGTGATTTTTGACAAACACAAAAAAAA [CACACA_negctrl_site651] | 10.1 ± 0.13 |
| TTATAACTTTTCACAAGTACATATATATATGTATAA [XGTACX_site2306] | 11.2 ± 0.79 |
| ATTATTTTATGAGACATAAAAAAAAAAAAAAAAAAA [CACACA_negctrl_site1067] | 9.73 ± 0.51 |
| AGATGAGAGATATATACACACAATAATACCTATTTA [CACACA_site6542] | 9.93 ± 0.085 |
| TAGATTATTATACTAGTGCAAATTATTTAAGAAAAA | 9.94 ± 0.2 |
| AAAAAAAAAAAGTGCACACATAAAAATATGATCTAA [CACACA_site572] | 10.8 ± 0.67 |
| TAAATTTTTCTAAGTGCATGTTAATTTTTCAATTTA [TGCATGCA_site906] | 9.87 ± 0.13 |
| ATTTCCTTGAATGTTGCATGCTGTATTTTAATTAAA [TGCATGCA_site280] | 10.06 ± 0.092 |

| Sequence | gcPBM binding intensity (ln) |
| --- | --- |
| AAAAAAAGGAAATTTACACACACATATAATATACAT [CACACA_site3297] | 9.965 ± 0.021 |
| ATATTATTTATAAAAGTGCAAAAATCACTTCTTTTA [GTGCAC_site9656] | 10.1 ± 0.2 |
| TTTAAAAAGTTATGAAGTACATATATATATATATAT [XGTACX_site2188] | 11.2 ± 0.87 |
| TAATATCGTATATGAGTGCAATATTTTAGATTTTGA | 9.91 ± 0.16 |
| AATATATCAAAAATGATGACATAAATATATTAATTT [GTGCAC_negctrl_site530] | 9.59 ± 0.23 |
| TGCACGCACAGACACACACACAACTAAAAAATAATG [CACACA_site7250] | 10.5 ± 0.42 |
| AAAAAAAGGTAAAATTGTACATACGCACAAAAATAT [XGTACX_site2887] | 11 ± 0.63 |
| AACTTTAAACCCTGAACACACACAAATACACCCAAA [CACACA_site7971] | 10.8 ± 0.69 |
| TATATATATATATATATATATATATATGTATATATG [XGTACX_negctrl_site242] | 9.93 ± 0.61 |
| ATAATCCACAAGCACACACACACACCCATATATATA [CACACA_site1268] | 10.2 ± 0.19 |
| AAAATTATCGTTATATGTACGCATCTTAATACGTAT [XGTACX_site4063] | 11.5 ± 1 |
| GTCTATATATTTTAGGTGCAACGTAAATGTAAAAAT | 10.4 ± 0.3 |
| TAACTTTTTTTTTTTTTTTTTTAACTTTTATGTAAT [GTGCAC_negctrl_site156] | 9.54 ± 0.11 |
| CTTTTCTATTTTTTCGTGCACTATAAATATTTTAAT | 10.5 ± 0.31 |
| CACCAAAATATATGTACATATGATAAATGTGAATAT [GTGCAC_negctrl_site83] | 11.3 ± 0.79 |
| AAAAAAATTAATAATGTGCACTTTTTAGTATTTTTA [GTGCAC_site9744] | 10.2 ± 0.21 |
| AAATGTTAATTAAATGCATGTACAAAAGGAGCGAAT [TGCATGCA_site942] | 11.1 ± 0.43 |
| TTGTAGATATTTATATGTACGAATTTATAAATATAG [XGTACX_site3611] | 11.1 ± 0.76 |
| TTTTAAAAAAGAAAAAAAAAGGATCAGAGAAATATT [GTGCAC_negctrl_site79] | 10.04 ± 0.014 |
| TTATATTTATTTAATGAACACACGATATATTATTTT [CACACA_site1601] | 9.96 ± 0.13 |
| TTTGTCAACCAAAATTGTACAAATGTATTCCCAATA [XGTACX_site1350] | 10.8 ± 0.46 |
| TTATTTATCAAAAAATGTACAAAAATATATAAACAA [XGTACX_site940] | 10.9 ± 0.57 |
